Measurements published in paper PMC2782468 (Nature structural & molecular biology, 2009).

Target: T1, human nuclear cap-binding complex (CBC), CBP20 and CBP80 co-expressed (human, UniProt Q09161;P52298)
T1 sequence 1: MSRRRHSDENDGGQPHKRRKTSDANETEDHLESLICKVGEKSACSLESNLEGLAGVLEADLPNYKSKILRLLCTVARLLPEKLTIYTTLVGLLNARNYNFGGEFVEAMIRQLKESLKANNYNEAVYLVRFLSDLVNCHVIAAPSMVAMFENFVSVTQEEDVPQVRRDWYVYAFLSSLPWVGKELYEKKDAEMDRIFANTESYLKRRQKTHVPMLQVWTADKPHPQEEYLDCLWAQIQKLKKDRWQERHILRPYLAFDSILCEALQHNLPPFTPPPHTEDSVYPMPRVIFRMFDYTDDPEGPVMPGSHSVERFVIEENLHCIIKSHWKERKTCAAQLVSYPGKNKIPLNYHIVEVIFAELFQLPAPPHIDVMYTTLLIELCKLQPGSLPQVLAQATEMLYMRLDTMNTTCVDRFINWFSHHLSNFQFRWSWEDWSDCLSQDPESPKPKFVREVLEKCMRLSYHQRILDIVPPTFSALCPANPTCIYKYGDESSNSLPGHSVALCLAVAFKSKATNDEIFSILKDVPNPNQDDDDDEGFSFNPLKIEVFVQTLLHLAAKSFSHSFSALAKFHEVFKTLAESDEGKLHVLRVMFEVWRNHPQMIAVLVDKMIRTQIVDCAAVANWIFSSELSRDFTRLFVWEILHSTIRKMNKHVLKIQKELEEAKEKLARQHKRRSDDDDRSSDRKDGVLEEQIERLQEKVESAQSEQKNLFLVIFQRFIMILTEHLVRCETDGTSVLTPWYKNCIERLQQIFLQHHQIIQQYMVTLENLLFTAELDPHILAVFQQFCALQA
T1 sequence 2: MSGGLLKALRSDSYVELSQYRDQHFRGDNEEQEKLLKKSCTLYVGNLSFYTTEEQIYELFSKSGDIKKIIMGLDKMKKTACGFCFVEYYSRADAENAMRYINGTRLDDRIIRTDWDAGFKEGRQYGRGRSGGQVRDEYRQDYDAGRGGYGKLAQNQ
Assay: native gel or EMSA

B1: importin-β ([…]) (domain or fragment)
chain: not shown
binding result: binds
